The supplement of paper PMC3724861
The list shows a part of the results.

tested on: T1, Caupolican (Caup) homeodomain DNA-binding domain; assay: PBM E-score (8-mer, recovered from the published 9-mer minima) (E-score (dimensionless, -0.5 to 0.5)); Drosophila protein; higher = stronger relative binding preference, active = 0.31 or more
T1 sequence: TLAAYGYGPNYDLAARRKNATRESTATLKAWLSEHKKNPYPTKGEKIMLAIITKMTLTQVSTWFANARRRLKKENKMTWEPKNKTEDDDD
In short: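 Caup's homeodomain DNA-binding domain (residues 214-303) was produced by in vitro transcription and translation and applied at 100 nM to custom-designed protein binding microarrays. Each value is an enrichment score giving relative binding preference for a short DNA word; higher means stronger. Published 9-mer scores were the minimum of their two constituent 8-mer scores, and the 8-mer values were recovered from those minima. A cutoff of 0.31 marks candidate binding sequences.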

Row | Sequence | PBM E-score
1 | CGAGAACA | inactive: 0.151
2 | GATATGCC | inactive: -0.0423
3 | CGTAGTGC | inactive: -0.0568
4 | CCGAAACG | inactive: -0.0407
5 | ATAGGCTC | inactive: -0.131
6 | CCAAGAGC | inactive: -0.196
7 | CAATTTAC | inactive: 0.188
8 | GTCTTAAC | inactive: 0.129
9 | CCCCAGTA | inactive: -0.124
10 | CCGGGAGA | inactive: -0.117
11 | CGAAGAAA | inactive: -0.0325
12 | TAAACTAA | inactive: 0.177
13 | AGTGATCC | inactive: 0.037
14 | AAATGTAC | inactive: 0.279
15 | ACGAGTCA | inactive: -0.0247
16 | CATAATTC | inactive: 0.065
17 | ACGGGTGA | inactive: 0.00384
18 | CGTCTTCA | inactive: -0.0985
19 | GCCCACGC | inactive: -0.309
20 | AGCCGGTC | inactive: -0.0994
21 | CAGAATGC | inactive: -0.132
22 | CCTCTCCA | inactive: -0.194
23 | TCACACCA | inactive: 0.0873
24 | GACGACTA | inactive: 0.101

Row | Sequence | PBM E-score
25 | ACACTATC | inactive: 0.129
26 | GCTGTTTA | inactive: 0.0691
27 | TGCCGGAA | inactive: -0.0642
28 | AAATTCCG | inactive: 0.00229
29 | GATCCACA | inactive: 0.0297
30 | ACAATAAG | inactive: 0.124
31 | CAAAAAAC | inactive: 0.119
32 | GACAAACC | inactive: 0.0748
33 | ATCTCGGC | inactive: -0.157
34 | GCCCATTA | inactive: -0.00357
35 | AATGCCCA | inactive: -0.0245
36 | ACTTGGGG | inactive: -0.227
37 | CCAGAGAA | inactive: -0.0781
38 | GCAACTGC | inactive: 0.0274
39 | TACAGAGA | inactive: 0.12
40 | CGTTCCAG | inactive: -0.0331
41 | CGGCGGAC | inactive: -0.143
42 | CGCCAGCC | inactive: -0.277
43 | ACACTGGC | inactive: 0.0762
44 | GGGAAGCA | inactive: -0.134
45 | CTTCTTGC | inactive: -0.135
46 | ACGCCCCA | inactive: -0.161
47 | GTGCTTCA | ≥ 0.0527
48 | CGCGGCCG | inactive: -0.317

Row | Sequence | PBM E-score
49 | ACAGTTCC | inactive: 0.0389
50 | AGTATAGA | inactive: 0.154
51 | AATGTACG | inactive: 0.153
52 | CCTTCTAC | inactive: -0.131
53 | AAGACAAT | inactive: 0.186
54 | AGCTCTTC | inactive: -0.0528
55 | ATCGACTG | inactive: -0.00774
56 | CTCCCCCC | inactive: -0.411
57 | TATTTACA | inactive: 0.304
58 | ATTGTGCA | inactive: 0.0772
59 | CTCTCAAG | inactive: -0.0267
60 | GAAGTCAC | inactive: -0.0947
61 | GGGCCCGA | inactive: -0.214
62 | CATAATGA | inactive: 0.153
63 | ATTCGGAG | inactive: -0.00213
64 | CCTTGTAG | active: 0.322
65 | CGATGGTC | inactive: -0.074
66 | AGGCACCC | inactive: -0.249
67 | CCGGGCAC | inactive: -0.198
68 | ATCAATCG | ≥ 0.156
69 | CAGCAACA | inactive: 0.202
70 | CCAGAAAG | inactive: -0.0376
71 | CACCCGGG | inactive: -0.259
72 | ACATATTG | inactive: 0.26

Row | Sequence | PBM E-score
73 | AAGGCAGC | inactive: -0.184
74 | TACGAAGA | ≥ 0.114
75 | AGCTTACT | inactive: -0.00482
76 | CAAGAGTG | inactive: 0.0824
77 | CGTCAACA | inactive: 0.0802
78 | AGGTGATA | inactive: 0.00708
79 | AGCTTAGA | inactive: -0.0147
80 | GTGTAGCA | inactive: 0.194
81 | ACCCAAAG | inactive: -0.153
82 | GGAAGGCC | inactive: -0.255
83 | GTGCAAAC | inactive: 0.023
84 | CATATGCA | inactive: 0.149
85 | CCTGCTTC | inactive: -0.175
86 | CCTGTCCG | inactive: 0.0228
87 | CGGGAGCC | inactive: -0.262
88 | GATGTAAC | inactive: 0.306
89 | GATGGGAC | inactive: -0.0604
90 | ATTCGTTG | inactive: 0.0756
91 | CATTCGAA | inactive: 0.109
92 | ATGGTCTG | inactive: 0.0396
93 | GCTTAATA | inactive: -0.0551
94 | ATGCCGTC | inactive: 0.02
95 | ATATTTCG | inactive: 0.142
96 | AAGTATGC | inactive: 0.0832

Row | Sequence | PBM E-score
97 | GCTTACCC | inactive: -0.181
98 | TCACTCAA | inactive: 0.00904
99 | AAACGGGC | inactive: -0.127
100 | ATCCGCAA | inactive: -0.0477
101 | CTCTTGCC | inactive: -0.00459
102 | AACGTAGA | inactive: 0.0221
103 | AGCTAAGC | inactive: -0.202
104 | CAACTCCG | inactive: -0.154
105 | CTCCGACC | inactive: -0.259
106 | CCCCGGCG | inactive: -0.293
107 | ACCCGCTG | inactive: -0.0225
108 | AACGGGTG | inactive: 0.0746
109 | AACACTCC | inactive: 0.14
110 | AAAGCTCC | inactive: -0.127
111 | ACTAGATG | inactive: 0.121
112 | CGGTGTCA | inactive: 0.193
113 | CTTATAAG | inactive: -0.077
114 | GAATGAAA | inactive: -0.0104
115 | TATAAGAA | inactive: 0.0887
116 | CGGGTGAG | inactive: -0.228
117 | ATGCTCTA | inactive: 0.044
118 | AATTTGTC | inactive: 0.153
119 | TCAAAACA | inactive: 0.235
120 | CTTTTCGC | inactive: -0.012

Row | Sequence | PBM E-score
121 | TCCGACAA | inactive: 0.219
122 | CCTGCCAC | inactive: -0.21
123 | CAGTAAGC | inactive: -0.039
124 | CGCTAAAC | inactive: -0.0158
125 | ATGCCCAG | inactive: -0.138
126 | CCGTAGAG | inactive: -0.071
127 | GCCGAAGC | inactive: -0.217
128 | AGGTGCCG | inactive: -0.137
129 | GATATTGC | inactive: 0.0829
130 | CCCCACCG | inactive: -0.216
131 | GATAATAA | inactive: 0.0864
132 | CGGAAGTA | inactive: -0.0468
133 | CGGGCATC | inactive: -0.126
134 | GAAAACCC | inactive: -0.0587
135 | CGTTCTTC | inactive: -0.0542
136 | GCGAAGAC | inactive: -0.112
137 | AGCCCCAG | inactive: -0.197
138 | AATGAGCA | inactive: 0.112
139 | AATTCATC | inactive: -0.0346
140 | GTTCACCA | inactive: 0.0226
141 | AGTAGTCG | inactive: 0.0743
142 | CCCAACCA | inactive: 0.0519
